These results are taken from article PMC4336329 (PLoS ONE, 2015).

Molecules are shown by their SMILES. Screen size: about 310,000 compounds; about 2,200 (0.71%) showed an effect of 50% or more. Effects have a minus sign here. This is one part of the list.

human ether-à-go-go-related gene (hERG) potassium channel, sequence (Q12809 whole entry, looked up): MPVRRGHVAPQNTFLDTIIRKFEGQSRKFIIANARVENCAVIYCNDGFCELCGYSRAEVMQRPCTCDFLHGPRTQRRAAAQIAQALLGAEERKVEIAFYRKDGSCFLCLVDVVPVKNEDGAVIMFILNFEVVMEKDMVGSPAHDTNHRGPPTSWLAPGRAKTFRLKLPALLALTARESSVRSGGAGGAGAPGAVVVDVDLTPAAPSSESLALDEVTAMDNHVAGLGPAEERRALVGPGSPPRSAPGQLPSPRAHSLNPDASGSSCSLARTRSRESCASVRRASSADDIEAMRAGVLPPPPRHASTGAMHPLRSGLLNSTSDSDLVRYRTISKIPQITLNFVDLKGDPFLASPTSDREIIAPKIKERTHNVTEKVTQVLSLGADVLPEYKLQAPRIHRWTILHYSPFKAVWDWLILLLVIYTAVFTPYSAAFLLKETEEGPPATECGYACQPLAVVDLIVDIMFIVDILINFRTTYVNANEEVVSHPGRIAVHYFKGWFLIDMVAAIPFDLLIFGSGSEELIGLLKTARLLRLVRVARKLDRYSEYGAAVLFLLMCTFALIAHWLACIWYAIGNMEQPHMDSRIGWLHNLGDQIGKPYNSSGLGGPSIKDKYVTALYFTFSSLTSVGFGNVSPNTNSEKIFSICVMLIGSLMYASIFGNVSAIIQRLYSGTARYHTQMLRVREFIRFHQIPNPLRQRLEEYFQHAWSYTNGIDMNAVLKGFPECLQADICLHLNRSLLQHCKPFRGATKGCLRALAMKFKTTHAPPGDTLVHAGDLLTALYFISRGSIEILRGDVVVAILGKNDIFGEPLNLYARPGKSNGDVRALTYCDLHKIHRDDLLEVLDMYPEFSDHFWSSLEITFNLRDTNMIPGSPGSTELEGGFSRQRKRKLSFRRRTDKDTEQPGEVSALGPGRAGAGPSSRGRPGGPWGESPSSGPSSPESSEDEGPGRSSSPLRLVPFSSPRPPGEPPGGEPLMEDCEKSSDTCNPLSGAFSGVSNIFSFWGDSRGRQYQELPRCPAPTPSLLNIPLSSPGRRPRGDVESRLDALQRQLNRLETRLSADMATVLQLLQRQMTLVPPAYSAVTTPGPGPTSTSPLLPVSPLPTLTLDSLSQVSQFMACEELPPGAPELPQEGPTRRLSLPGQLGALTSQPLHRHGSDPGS

The test concerns the target human ether-à-go-go-related gene (hERG) potassium channel (human, UniProt Q12809). Briefly: primary screen, population patch clamp on CHO cells stably expressing hERG.
Consider `CSc1ccccc1NC(=O)c1cnccn1`, for which the “hERG current change (%, negative = inhibition) at 1uM” value is on record as 19%.

On to `CCN(CC(=O)NCc1ccc(Cl)cc1)C(=O)COc1cccc(Cl)c1`, for which the “hERG current change (%, negative = inhibition) at 1uM” value was -25.1%.

In the case of `COc1ccc(C(C(O)C(=O)c2c[nH]c3ccccc23)N2CCN(c3ccccc3)CC2)cc1` (centres unmarked), the “hERG current change (%, negative = inhibition) at 1uM” value was determined as 4.75%.

Consider `COc1ccc(N2CCN(C(=O)CCCCCn3c(=O)[nH]c4ccsc4c3=O)CC2)cc1`, for which the “hERG current change (%, negative = inhibition) at 1uM” value was -8.68%.

On to `O=S1(=O)CC=C(CSC(=S)NC2CCS(=O)(=O)C2)C1` (centres unmarked), for which the “hERG current change (%, negative = inhibition) at 1uM” value is 16.6%.

On to `Cn1c(=O)c(C(=O)CN2CC(=O)Nc3ccccc32)c(N)n(Cc2ccccc2)c1=O`, for which the “hERG current change (%, negative = inhibition) at 1uM” value is listed as 10.8%.

For the molecule `CC(NC(=O)C(=O)NCCCn1ccnc1)c1ccccc1` (centres unmarked), the “hERG current change (%, negative = inhibition) at 1uM” value stood at 19.7%.

Consider `CN(C)C(=O)CSc1nnc(Cc2ccc([N+](=O)[O-])cc2)o1`, for which the “hERG current change (%, negative = inhibition) at 1uM” value is reported as -1.73%.

On to `COc1ccc(N2CCN(S(=O)(=O)/C=C/c3ccccc3)CC2)cc1`, for which the “hERG current change (%, negative = inhibition) at 1uM” value was found to be 8.05%.

Regarding `O=C(NCCc1ccc(Cl)cc1)c1cccs1`, the “hERG current change (%, negative = inhibition) at 1uM” value was 5.24%.

`CC(=O)N1CCN(c2ccc(NCc3ccc(C)s3)cc2)CC1.Cl`: the “hERG current change (%, negative = inhibition) at 1uM” value is reported as 9.64%.

Turning to `COc1ccc(CCNC(=S)Nc2ccc(S(=O)(=O)Nc3ncccn3)cc2)cc1OC`, the “hERG current change (%, negative = inhibition) at 1uM” value turned out to be 19.5%.

For `CC(=O)Nc1ccc(C(=O)NN2C(=O)NC3(CCCCC3)C2=O)cc1`, the “hERG current change (%, negative = inhibition) at 1uM” value is given as -1.05%.

On to `COc1cccc(C2CC(c3ccc(Br)cc3)=NN2C(=O)c2ccncc2)c1OC` (centres unmarked), for which the “hERG current change (%, negative = inhibition) at 1uM” value is recorded as -4.94%.

Consider `COCCNC(=O)CSc1ccc(Cl)cc1`, for which the “hERG current change (%, negative = inhibition) at 1uM” value turned out to be 11.4%.

For the molecule `O=C1c2oc3ccc(Cl)cc3c(=O)c2C(c2cccc(Br)c2)N1CCO` (centres unmarked), the “hERG current change (%, negative = inhibition) at 1uM” value is 0.327%.

`CC1(C)C=C2C(=NN(c3ccccc3)C(N)=C2C#N)CO1`: the “hERG current change (%, negative = inhibition) at 1uM” value is recorded as 11.8%.

On to `CC1CCN(S(=O)(=O)c2ccc(NC(=O)C3CCN(C(=O)c4ccco4)CC3)cc2)CC1`, for which the “hERG current change (%, negative = inhibition) at 1uM” value came out at 4.13%.

`CCC(C)(C)NC(=O)C(NS(=O)(=O)c1cccs1)c1ccccc1` (centres unmarked): the “hERG current change (%, negative = inhibition) at 1uM” value came to 13.9%.

For `COc1ccc(OC)c(-c2csc(NC(=O)COC(=O)C3CC3)n2)c1`, the “hERG current change (%, negative = inhibition) at 1uM” value was found to be 0.213%.

On to `COc1ccc(C(=O)N2CCCC(CCC(=O)NCc3ccc(F)c(F)c3)C2)cc1F` (centres unmarked), for which the “hERG current change (%, negative = inhibition) at 1uM” value is on record as 0.257%.

For the molecule `O=C(CCNS(=O)(=O)c1cccc2nsnc12)NCCC1=CCCCC1`, the “hERG current change (%, negative = inhibition) at 1uM” value is listed as 9.06%.

Consider `Cc1cc(C)cc(NC(=O)CN2C(=O)C3CC=CCC3C2=O)c1` (centres unmarked), for which the “hERG current change (%, negative = inhibition) at 1uM” value came to 9.57%.

Regarding `Cc1ccccc1CSc1nnc2ccc(-c3ccncc3)nn12`, the “hERG current change (%, negative = inhibition) at 1uM” value is 4.83%.

On to `Cn1cccc1Cc1nnc(SCC(=O)NCc2ccco2)n1CCc1ccccc1`, for which the “hERG current change (%, negative = inhibition) at 1uM” value is reported as 1.13%.

Take `S=C(NCc1ccc(Cl)cc1)NC1CCCCC1`: the “hERG current change (%, negative = inhibition) at 1uM” value is reported as 9.06%.

Regarding `COc1cccc(CCc2nnc(CCC(=O)NC(C)Cc3cccs3)o2)c1` (centres unmarked), the “hERG current change (%, negative = inhibition) at 1uM” value was 6.48%.

Turning to `CCOc1ccc(N(C)S(=O)(=O)c2ccc3[nH]cc(C(=O)NCC4CCCO4)c(=O)c3c2)cc1` (centres unmarked), the “hERG current change (%, negative = inhibition) at 1uM” value was 16.1%.

On to `CCNc1ccc(S(=O)(=O)NCCN(C)C)cc1[N+](=O)[O-]`, for which the “hERG current change (%, negative = inhibition) at 1uM” value is -1.41%.

With `COc1cccc(CN(C)CC(=O)NCc2ccc(F)cc2)c1OC`, the “hERG current change (%, negative = inhibition) at 1uM” value came out at 11.7%.

For `CN(C(=O)CN1C(=O)C2C3CC(C(Br)C3Br)C2C1=O)C1CCCCC1` (centres unmarked), the “hERG current change (%, negative = inhibition) at 1uM” value is 5.39%.

In the case of `COc1ccc(C(=O)NN2CC(O)=C(c3nc4ccccc4n3C)C2=N)cc1OC`, the “hERG current change (%, negative = inhibition) at 1uM” value was -3.87%.

Take `Cc1ccccc1NC(=O)CCn1c(=O)oc2ccccc21`: the “hERG current change (%, negative = inhibition) at 1uM” value amounted to 2.76%.

As for `CCOc1ccccc1NC(=O)CSc1nnc(CCC(=O)Nc2ccccc2F)n1C`, the “hERG current change (%, negative = inhibition) at 1uM” value is on record as -2.14%.

On to `O=C(c1ccc2ccccc2c1)N1CCN(c2ccc(C(F)(F)F)cn2)CC1`, for which the “hERG current change (%, negative = inhibition) at 1uM” value worked out at 2.21%.

Take `O=C(Cc1ncon1)Nc1ccc(F)c(F)c1F`: the “hERG current change (%, negative = inhibition) at 1uM” value came out at 9.28%.

For `COc1ccc2[nH]c(=O)c(CN(Cc3ccco3)C(=O)c3ccccc3)cc2c1`, the “hERG current change (%, negative = inhibition) at 1uM” value amounted to 2.57%.

`O=S(=O)(c1ccc(SCc2ccccc2)nc1)N1CCCC1`: the “hERG current change (%, negative = inhibition) at 1uM” value was determined as 0.479%.

As to `CCCn1cc(CN2CCC(n3nccc3NC(=O)C(OC)c3ccccc3)CC2)c(C)n1` (centres unmarked), the “hERG current change (%, negative = inhibition) at 1uM” value was 0.452%.

Take `Cc1ccc2oc(C(=O)N3CCN(Cc4ncccc4C)CC3)c(C)c2c1`: the “hERG current change (%, negative = inhibition) at 1uM” value is -11.1%.

On to `CC(=O)Nc1ccc(NC(=O)C(C)OC(=O)CCC2CCCC2)cc1` (centres unmarked), for which the “hERG current change (%, negative = inhibition) at 1uM” value is listed as -5.53%.

For the molecule `Cc1ccc(NC(=O)COc2ccc(/C=C3/NC(=O)NC3=O)cc2)cc1`, the “hERG current change (%, negative = inhibition) at 1uM” value is given as -6.68%.

`COc1cc(C)ccc1NC(=O)c1ccc(S(=O)(=O)N2CCOCC2)cc1`: the “hERG current change (%, negative = inhibition) at 1uM” value is given as 6.12%.

Consider `Cc1ccccc1N(C(=O)Cn1nnc(-c2cccs2)n1)C(C(=O)NCCC(C)C)c1ccco1` (centres unmarked), for which the “hERG current change (%, negative = inhibition) at 1uM” value is on record as -12.8%.
